Results from the supplement of paper PMC3334620.
The full ranking holds about 33,000 sequences; the median of “E-score (-0.5 to 0.5)” is about -0.054, and the highest 2% start at about 0.39. This is one part of the list.

Target: Ylr278c (UniProt Q05854)
Test: PBM E-score (8-mer binding enrichment) (E-score (-0.5 to 0.5)); higher = stronger / more preferred TF binding; most listed sequences are background and not binding sites
Settings: protein concentration: 200 nM; construct: GST-DNA-binding domain
Procedure: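 Universal 'all 10-mer' protein binding microarrays (Agilent AMADID 015681) probed with GST-tagged S. cerevisiae TFs (full-length or DBD) made by in vitro transcription/translation (PURExpress), about 100-200 nM. Bound TF was detected with fluorescent anti-GST. Each ungapped 8-mer (which stands for itself and its reverse complement) is scored by the PBM enrichment score (E-score), a modified Wilcoxon-Mann-Whitney statistic from -0.5 to +0.5, computed with the Universal PBM Analysis Suite. Scale: above 0.35 generally sequence-specific binding.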

| Sequence | PBM E-score |
| --- | --- |
| AGGATAGG | -0.172 |
| GAGTTATA | -0.056 |
| GGCGAGGA | -0.0257 |
| CCCTTTTA | -0.296 |
| GCCATACC | -0.124 |
| CGGACTAG | 0.325 |
| GACGTGGA | -0.0981 |
| AAGTAGCC | -0.00524 |
| AGAGAGAC | -0.25 |
| GCGAATTA | 0.134 |
| ACAATTGG | -0.269 |
| GAGCTTGC | -0.134 |
| AACATTTC | -0.204 |
| CCGACTCC | 0.369 |
| GGTAATCA | 0.0971 |
| TAAAAGGA | -0.0541 |
| CTTGCGTC | -0.148 |
| AAATCCAT | 0.0574 |
| AGCTACAG | -0.274 |
| ATGTGAAT | 0.00454 |
| AGTTTACA | -0.117 |
| AAAGAAGC | 0.0425 |

| Sequence | PBM E-score |
| --- | --- |
| CCTCCTTC | -0.142 |
| CCAAGCGC | 0.06 |
| ACAGCGCA | -0.0624 |
| ATCCGGCG | 0.432 |
| ATACGGAT | 0.256 |
| GGACTGCC | 0.00451 |
| ATTAGCAC | 0.0473 |
| CTACCCCC | 0.0779 |
| GAGCCGCA | 0.0873 |
| CCGACCGA | 0.347 |
| GGACTATA | 0.13 |
| CGAATTGC | 0.156 |
| AGGTACCG | 1e-05 |
| TCGCGGAA | 0.342 |
| GAATCTGC | 0.12 |
| AGAATCCG | 0.297 |
| AATCTTCT | 0.094 |
| TCGGGAGA | 0.0741 |
| CTGTCTTA | -0.0895 |
| AGACACGG | 0.086 |
| ATGCCCCA | -0.0328 |
| CGACTAGC | 0.0696 |

| Sequence | PBM E-score |
| --- | --- |
| CAAGGAGG | -0.132 |
| AGCCGAGA | 0.0504 |
| GGCACCCC | -0.0269 |
| CTGTGACA | -0.217 |
| ATAGACGC | 0.13 |
| ATCAGGAA | -0.0943 |
| CCGCTGCA | 0.0719 |
| CTGCGAAG | -0.289 |
| AACAGAGC | -0.159 |
| AACATCTG | -0.262 |
| CAACAACC | -0.0761 |
| CTAAGTTA | -0.242 |
| AAGATCAT | -0.179 |
| CCTCTGAC | -0.0653 |
| CGAGCCAC | -0.115 |
| TCCTCAGA | 0.0167 |
| CGCGCAAG | 0.0504 |
| ACATTTTG | -0.159 |
| CCGAATAA | 0.231 |
| CCACAAAG | -0.0704 |
| ACCCACAT | 0.063 |
| GTACGCTA | -0.111 |

| Sequence | PBM E-score |
| --- | --- |
| ACAGAAGA | -0.00191 |
| ACGGTGTG | -0.11 |
| AGGGGATG | -0.112 |
| AAGTAGGC | 0.0727 |
| AGATGCCG | 0.259 |
| ACGATGGA | -0.0215 |
| CGGAACCA | 0.324 |
| CGGCCCAA | 0.163 |
| ATTGATGA | -0.041 |
| GACTAGCC | -0.119 |
| ACCGCGAG | 0.00983 |
| TTAGTAAA | 0.0137 |
| CCCATGCA | -0.195 |
| TCTATAAA | -0.159 |
| CATCTTAC | -0.242 |
| ACAACTAT | -0.0664 |
| AGCATAGG | -0.11 |
| CGGATATC | 0.366 |
| ATAGTCGA | -0.0984 |
| ACACTAGA | -0.061 |
